# Laboratory results taken from the BET-seq Pho4 binding data (Le et al. 2018).
# This is one part of the list. The energies were worked out here from pooled read counts, against the library average; single values are noisy.
# Target: T1, Pho4 (S. cerevisiae) (UniProt P07270)
# T1 sequence: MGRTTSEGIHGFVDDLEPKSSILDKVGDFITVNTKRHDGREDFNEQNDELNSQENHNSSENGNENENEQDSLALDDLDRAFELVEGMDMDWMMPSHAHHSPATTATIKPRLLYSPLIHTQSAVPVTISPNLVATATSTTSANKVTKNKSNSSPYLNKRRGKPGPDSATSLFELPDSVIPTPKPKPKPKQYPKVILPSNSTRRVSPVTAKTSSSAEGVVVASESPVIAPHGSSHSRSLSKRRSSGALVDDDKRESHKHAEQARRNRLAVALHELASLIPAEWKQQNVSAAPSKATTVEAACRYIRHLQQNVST
# Assay: relative binding free energy (BET-seq); higher = weaker binding
# Conditions: reference: library average
row,Sequence,relative binding free energy [kcal/mol]
1,ATTTTCACGTGTTCTT,0.37
2,TGTTCCACGTGAGGTC,0.4
3,ATGGTCACGTGTGTCT,0.05
4,GTGTACACGTGCGTAT,-0.04
5,TGGTGCACGTGCTGCG,-0.23
6,GTTTACACGTGGAGTC,0.14
7,TCTGGCACGTGGTTGG,-0.14
8,GTCGCCACGTGGGTGT,-0.28
9,AGTGTCACGTGGTCTG,-0.12
10,GTTTCCACGTGGGTTT,0.04
11,TGCGGCACGTGTTGTA,-0.04
12,AGGAGCACGTGGACGT,-0.05
13,TGGTGCACGTGCAGTT,0.07
14,AGCATCACGTGTCGGG,0.15
15,TCCTTCACGTGGGTTG,0.17
16,GGTGGCACGTGGCGTA,-0.12
17,AGTCACACGTGAGGTG,0.13
18,GACGACACGTGTGTGG,0.04
19,AGGATCACGTGATGGA,0.29
20,GTCTGCACGTGGGTGT,-0.06
21,ATTGTCACGTGTTCAG,-0.02

row,Sequence,relative binding free energy [kcal/mol]
1,AAATACACGTGTTTTA,0.04
2,TTATGCACGTGTAATG,-0.02
3,GAAGACACGTGTTTTT,0.16
4,AAGCGCACGTGAAGTG,0.2
5,GCTGACACGTGTGAGT,0.32
6,GAGGCCACGTGGAGGT,-0.08
7,ACGAGCACGTGGAAGG,-0.02
8,TGTGGCACGTGTGTGG,-0.05
9,CGGGACACGTGTGTTA,0.08
10,AATGTCACGTGTTTCG,0.12
11,AGTAACACGTGAGTGA,0.2
12,GGTTCCACGTGTTTAA,0.05
13,GAGTACACGTGATGTG,0.33
14,AGGGACACGTGGGAGC,-0.04
15,GATGACACGTGTGGAT,0.16
16,TATGACACGTGTGGAG,0.03
17,AGTTTCACGTGTGGAA,0.34
18,GCGATCACGTGGGGAG,0.1
19,TAGAACACGTGGTGCT,-0.06
20,GTATACACGTGGCTGT,-0.13
21,GGGTGCACGTGGTATA,-0.08

row,Sequence,relative binding free energy [kcal/mol]
1,GGATCCACGTGTGTTT,0.18
2,CAGTTCACGTGTTTTG,0.29
3,AATTGCACGTGCGTGA,-0.04
4,ATAGGCACGTGTTATA,-0.31
5,GAAGTCACGTGGTATT,0.13
6,AAAATCACGTGTAGTG,0.14
7,TGGGTCACGTGCATGA,0.04
8,GGGGGCACGTGACTGG,-0.04
9,TAATACACGTGGTTAA,0
10,CCTTGCACGTGTTGGG,0.02
11,ATCTTCACGTGTTCGG,0.27
12,TTTGGCACGTGAATAG,0.14
13,TTTAACACGTGGTCTA,-0.01
14,GGGGTCACGTGGTCGA,-0.01
15,CTGGGCACGTGAGGTT,0.07
16,GGATTCACGTGACGGG,0.55
17,AAGTACACGTGGGTTT,-0.01
18,TGGCACACGTGTATTA,0.11
19,TGGTACACGTGAGATG,0.28
20,AAATACACGTGTGGCT,0.14
21,ATCTTCACGTGTGTTA,0.25
